# Laboratory results: PubChem BioAssay AID1347417 (National Center for Advancing Translational Sciences (NCATS), 2020)
# About 5,300 (4.4%) of roughly 120,000 compounds were called active. The inconclusive results got no clear call from the source; some entries with a clear call stand among them for comparison. Calls come from the whole dose curve; as a rule, active = well fitted inhibition curve with a large enough effect; inconclusive = small, poorly fitted or top-dose-only effect; inactive = no such curve, though single readings can be large or run the other way. Potencies of inconclusive entries are doubtful fits and often do not repeat.
# Assay: qHTS Primary assay for Inhibitors of Plasmodium falciparum Dd2 growth in vitro; note: nearly all actives have a fitted effect of over 65% in size;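 for activity, negative = inhibition: plate controls were DMSO vehicle for no effect and reference drug for full effect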
# Settings: P. falciparum Dd2 growth, SYBR Green, 72 h; activity, negative = inhibition: at 28.9 µM (top of the series) unless noted; series mostly up to 28.9 µM
# Method in brief: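 Infected erythrocytes (Dd2, 0.3% parasitemia, 2.5% hematocrit final) are added to compound in RPMI-1640/Albumax II medium, grown 72 h at 37C in low oxygen, then lysed with saponin/Triton-X containing SYBR Green and read by fluorescence.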
# Potency is the fitted concentration of half-maximal effect; tags give direction and shape of the fitted curve.
Structure (SMILES),"activity, negative = inhibition",Potency,outcome
O=C(Cc1cccc(F)c1)NCCC1CCN(C(=O)Nc2ccc(F)cc2F)CC1,inactive: -18%,,
CCCc1nc(C(=O)NC(c2ccc(OC)nc2)C2CC(O)C2)cs1 (stereo not drawn),inactive: -0.926%,,
CCCCc1ccc(C(=O)Nc2ccc3nc(N(CC)CC)cc(C)c3c2)cc1,,"inconclusive: 8.91 µM [inhibitor, single point]",
CN1CCN(Cc2nc(C3(O)CCN(C(=O)CC(C)(C)C)CC3)cs2)CC1,inactive: 9.47% [at 44.1 µM],,
CNC(=O)N1CCc2nc(N3CCN(C)CC3)[nH]c(=O)c2CC1,inactive: 16.5% [at 5.79 µM],,
O=C(O)Cn1nc(N2CCN(c3ccc(F)cc3)CC2)ccc1=O,inactive: 25.1%,,
COc1ccc(CN2C(=O)[C@@H]3C[C@@H](O)CN3C3(CN(Cc4ccc(NC(C)=O)cc4)C3)C2=O)cc1,inactive: 7.72%,,
CCCCC1CN(c2cccc(-c3ccccc3)c2)C(=O)CN1C(C)=O (stereo not drawn),inactive: -14.5%,,
CC(C)c1ccc(C(=O)N2CCC3(CC2)OC(=O)N(Cc2ccc(O)cc2)C3(C)c2ccccc2)cc1 (stereo not drawn),,"inconclusive: 5.01 µM [inhibitor, partial curve]",
CCOc1ccc(CCNc2ncnc3onc(-c4ccc(F)cc4)c23)cc1OCC,,,inactive
O=S1(=O)CCC(S(=O)(=O)Nc2ccccc2)C1 (stereo not drawn),inactive: 2.99%,,
OC1(c2ccc(F)cc2)CCN(c2nccc(-c3ccccn3)n2)CC1,,"inconclusive: 15.8 µM [inhibitor, single point]",
COc1ccc(-c2noc(CN3CCCC(C(=O)c4cccnc4)C3)n2)c(OC)c1OC (stereo not drawn),,"inconclusive: 17.8 µM [inhibitor, single point]",
O=C(C[C@H]1NC(=O)c2ccccc2NC1=O)NCCc1ccccn1,inactive: -4.99%,,
O=C(CCc1nc2cccnc2n1Cc1ccccc1)NCc1cccc(Cl)c1,,"inconclusive: 0.282 µM [inhibitor, partial curve]",
Cc1ccc(C(=O)NC2CCN(c3cnn(Cc4ccccc4)c(=O)c3)CC2)s1,,"inconclusive: 7.94 µM [inhibitor, partial curve, poor fit]",
O=C(Nc1cccc(Cl)c1)c1ccc2nc(Cc3ccccc3)oc2c1,,"inconclusive: 11.2 µM [inhibitor, single point]",
C=CCNC(=O)N1CCC(O)(c2csc(CN3CCc4ccccc4C3)n2)CC1,,"inconclusive: 11.2 µM [inhibitor, single point]",
COc1ccc(C2(C(=O)NCc3cccnc3N3CCN(C)CC3)CC2)cc1,,"inconclusive: 10 µM [inhibitor, partial curve, poor fit]",
c1ccc(Nc2cc3c(cn2)CN(Cc2cccs2)CCN3)cc1,,active: 7.94 µM,
Cc1ccc2c(c1)N(C(=O)N1CCC(C(=O)NCCC3=CCCCC3)CC1)CC(C)O2 (stereo not drawn),,"inconclusive: 11.2 µM [inhibitor, single point]",
Cc1c(C(=O)N2CCCC2)oc2c1-c1nn(CC(=O)NCc3cccc(F)c3)cc1CC2,inactive: -25.3%,,

Structure (SMILES),"activity, negative = inhibition",Potency,outcome
Cc1ccc(NCc2cccn2-c2nnc(N3CCC(C(=O)NCCc4ccccc4)CC3)s2)cc1,,"inconclusive: 12.6 µM [inhibitor, single point]",
Cc1ccsc1C(=O)Nc1cccc(-c2nnc3n2CCCC3)c1,,"inconclusive: 0.708 µM [inhibitor, full curve, poor fit]",
COc1ccc(NC(=O)N[C@H]2CO[C@H]3[C@@H]2OC[C@H]3OC(=O)Nc2ccc(Oc3ccccc3)cc2)cc1,,"inconclusive: 17.8 µM [inhibitor, single point]",
Fc1cccc(NCc2cccn2-c2nnc(N3CCOCC3)s2)c1,,"inconclusive: 7.94 µM [inhibitor, single point]",
CN(Cc1cnccn1)Cc1ccccc1OCC(O)CN(C)C1CCCCC1 (stereo not drawn),,"inconclusive: 6.31 µM [inhibitor, partial curve]",
C=CCN1CC2(CCC1=O)CCN(C(=O)[C@H](N)c1ccccc1)CC2,inactive: -15.4%,,
CCc1nc(C)c(CC(=O)NCc2cc(F)cc3c(C)c(CC)[nH]c23)c(=O)[nH]1,inactive: 0.493%,,
O=C(NCc1ccc(N2CCOCC2)cc1)c1ccc(N2CC3CC(C2)[C@H]2CCCC(=O)N2C3)nc1 (stereo partly drawn),,"inconclusive: 10 µM [inhibitor, single point]",
CCc1noc(-c2ccn3c(CNC(=O)Cc4ccccc4OC)nnc3c2)n1,,"inconclusive: 1 µM [inhibitor, partial curve]",
COC(=O)c1ccc2nc(C[C@@H]3C[C@@H](C(C)C)[C@H](CNC(=O)C(C)C)C=C3C)[nH]c2c1,,"inconclusive: 5.01 µM [inhibitor, full curve, poor fit]",
CCc1ccccc1NC(=O)C(NS(=O)(=O)c1ccc2c(c1)CCC(=O)N2)c1ccccc1 (stereo not drawn),,"inconclusive: 0.141 µM [inhibitor, partial curve, poor fit]",
O=C1CN(C(=O)CCC(=O)N2CCC3(CCCCO3)CC2)c2ccccc2N1,inactive: -9.1%,,
Cc1ccc(CN(C)C(=O)c2ccccc2OC2CCN(Cc3ccccn3)CC2)o1,,"inconclusive: 8.91 µM [inhibitor, single point]",
CCn1cnnc1-c1nn(C)c2c1CN(C(=O)Cc1ccc(NC(C)=O)cc1)CC2,,"inconclusive: 15.8 µM [inhibitor, single point]",
COc1ccccc1NC(=O)N1CC[C@H](c2nnc(-c3ccc(C)cc3)o2)C1,,"inconclusive: 31.6 µM [inhibitor, single point]",
O=C(Nc1ccc(F)cc1F)N[C@H]1C[C@H]2C(=O)NC[C@@H](CCC(=O)N3CCC(O)CC3)N2C1,inactive: 3.59%,,
CCOc1ccccc1NC(=O)CN(CCc1ccccc1)S(=O)(=O)c1ccc(C)cc1,,active: 11.2 µM,
CCN1c2cc(C(=O)Nc3ccc4c(c3)OCCO4)ccc2C(=O)N2CCCC21 (stereo not drawn),,"inconclusive: 0.178 µM [inhibitor, partial curve, poor fit]",
CCc1cccc(C)c1NC(=O)CN1C(=O)c2c(c3ccccc3n2C)C1c1ccc(OC)cc1 (stereo not drawn),,"inconclusive: 15.8 µM [inhibitor, single point]",
CCn1ccc2cc(S(=O)(=O)N3CCC(C(=O)NCCc4ccc(SC)cc4)CC3)ccc21,,active: 8.91 µM,
CCn1ccc(C(=O)N2C[C@@H](COC)[C@H](c3nc(C4CC4)no3)C2)n1,,,inactive
